“And” between values parts separate entries of the source, which are not always exact repeats. Identical values can stand only once. Out of some 110,000 compounds screened, about 230 (0.21%) showed an effect of 50% or more. This is one part of the list.
biological target: DPAP1 (Plasmodium falciparum, UniProt Q8IIJ9); assay: primary screen, percent inhibition; read by cleavage of a fluorogenic dipeptide substrate; higher = more effect of the substance; set-up: species or system P. falciparum D10 trophozoite lysates; single well
Sequence (Q8IIJ9 whole entry, looked up): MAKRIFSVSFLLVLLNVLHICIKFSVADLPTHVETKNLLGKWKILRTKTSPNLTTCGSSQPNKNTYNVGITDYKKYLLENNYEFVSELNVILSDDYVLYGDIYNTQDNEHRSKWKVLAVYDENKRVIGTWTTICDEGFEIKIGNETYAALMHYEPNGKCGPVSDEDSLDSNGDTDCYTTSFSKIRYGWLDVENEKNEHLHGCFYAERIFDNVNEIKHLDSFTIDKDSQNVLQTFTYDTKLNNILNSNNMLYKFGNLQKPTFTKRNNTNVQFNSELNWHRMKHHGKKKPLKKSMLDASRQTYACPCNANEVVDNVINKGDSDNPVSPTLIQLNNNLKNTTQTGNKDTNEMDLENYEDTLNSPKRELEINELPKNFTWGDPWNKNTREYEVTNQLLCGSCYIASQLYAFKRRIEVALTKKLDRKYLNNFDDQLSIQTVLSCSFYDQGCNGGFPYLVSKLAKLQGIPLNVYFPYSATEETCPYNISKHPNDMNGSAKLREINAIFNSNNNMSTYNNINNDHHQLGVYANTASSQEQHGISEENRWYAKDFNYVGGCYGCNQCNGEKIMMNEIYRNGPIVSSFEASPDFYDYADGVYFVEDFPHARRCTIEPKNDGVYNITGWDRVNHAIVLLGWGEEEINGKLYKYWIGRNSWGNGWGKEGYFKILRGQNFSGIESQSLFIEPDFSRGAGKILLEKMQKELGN
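Further: 30 min substrate incubation versus DMSO and 10 µM JCP410 controls.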

SMILES	% Inhibition @ 10 uM
Cc1ccnc(NC(=O)c2ccccc2NC(=O)C(C)(C)C)c1	4.44%
O=C(C1=C(Nc2ccccc2)c2ccccc2S(=O)(=O)N1)c1ccccc1	2.38%
O=C(c1ccc(COc2cc(Cl)ccc2Cl)o1)N1CCSCC1	2.32%
COc1ccc(OCc2nn3c(C4COc5ccccc5O4)nnc3s2)cc1 (centres unmarked)	4.47%
O=C(O)C1C2C=CC(O2)C1C(=O)NCCCN1CCOCC1 (centres unmarked)	-2.22%
Cc1noc(C(=O)NCc2ccccc2)c1Cl	3.2%
Cc1ccc2nc(N(CCN(C)C)C(=O)CCS(=O)(=O)c3ccccc3)sc2c1	-5.88%
Cc1nc2nc(C)c(CCC(=O)NCc3ccc(F)cc3)c(C)n2n1	-4.1%
Cc1ccc(S(=O)(=O)NCCCCCC(=O)Nc2ccccn2)cc1	2.32%
CNC(=O)c1c(NC(=O)c2cc(=O)c3ccc(C)cc3o2)sc2c1CCCC2	0.248%
CC1CCc2c(sc(NC(=O)C3CCCO3)c2C(N)=O)C1 (centres unmarked)	-7.19%
Cc1cccc(CNC(=O)C2CCCN2c2nn3c(=O)cc(C)nc3s2)c1 (centres unmarked)	-3.79%
CCCN1C(=O)c2[nH]nc(-c3ccc(OC)cc3)c2C1c1cccs1 (centres unmarked)	-6.56%
O=C(CSc1cn(Cc2ccc(F)cc2)c2ccccc12)N1CCCCC1	4.65%
CCc1c(C)nc2n(c1=O)C(CS(=O)(=O)c1ccc(C)cc1)CS2 (centres unmarked)	3.54%
Cc1cc(C)c2ccc(C3=C(O)c4ccccc4C3=O)nc2c1O	0.266%
Cc1c(Cl)c(C(=O)NCc2ccc(F)cc2)nn1C	-4.75%
O=C(N/C(=C\c1ccc(-c2ccc(F)cc2)o1)C(=O)N1CCOCC1)c1ccccc1	2.17%
CCN1CCCC1CNC(=O)c1nn(C)c2c1CSc1ccccc1-2 (centres unmarked)	1.68%
CCCCSCCCNC(=O)c1ccc(CS(=O)(=O)c2ccccc2)o1	-1.28%
O=C1CC(c2ccc3c(c2)OCO3)C2=C(CC(c3cccs3)CC2=O)N1 (centres unmarked)	3.5%
Cc1nnc(N2CCC(C(=O)NCCN3CCOCC3)CC2)c2nn(-c3ccccc3)c(C)c12	-6.13%
CN(C)S(=O)(=O)c1ccc(N2CCCC2=O)c([N+](=O)[O-])c1	0.989%
Cc1ccc(-c2nc3scc(CCNC(=O)c4ccco4)n3n2)cc1	6.56%
COc1ccc(C2=NN(C(=O)CCC(=O)O)C(c3ccccc3OC)C2)cc1 (centres unmarked)	3.17%
COc1ccc(C(=O)Nc2c(Cl)cc(Cl)cc2C(=O)NCC2CCCO2)cc1 (centres unmarked)	-3.39%

SMILES	% Inhibition @ 10 uM
CCCCNC(=O)Nc1nc(C23CC4CC(CC(c5ccc(C)cc5)(C4)C2)C3)cs1	2.58%
CCOc1ccccc1NC(=O)CN(c1ccccc1C)S(=O)(=O)c1ccccc1	-5.69%
CC1CC(C)CN(CCCNC(=O)Cn2ncn3nc(-c4cccs4)cc3c2=O)C1 (centres unmarked)	2.27%
O=[N+]([O-])c1ccc(N2CCOCC2)cc1OCCc1ccccc1	3.18%
COc1ccccc1-c1cc(C(F)F)n2ncc(C(=O)NCC34CC5CC(CC(C5)C3)C4)c2n1	-4.73%
CCOC(=O)Nc1ccc(-c2ccc(NC(=O)OCC)cc2N)cc1	0.245%
Fc1ccc(CN2CCN(C/C=C/c3ccccc3)CC2)cc1Br	2.23%
c1ccc(N2CCN(c3ncnc4c3nc3n4CCCCC3)CC2)nc1	5.38%
COc1ccccc1/C=C(\NC(=O)c1ccc(C)cc1)C(=O)N1CCOCC1	1.01%
O=C(NCc1cccnc1)c1c(Cl)cccc1Cl	-1.6%
CC(=O)OCCNC(=O)c1c([N+](=O)[O-])ncn1C	-6.22%
COCCNC(=O)C1CCN(c2nnc(N3CCCC3=O)s2)CC1	-1.08%
Cc1cc(O)n2nc(-c3ccncc3)nc2n1	-2.19%
COC(=O)c1cc2ccsc2n1Cc1ccccc1C	-2.34%
CC(=O)Nc1cccc(NC(=O)c2cccs2)c1	1.96%
Cc1nc2n(n1)C(c1ccc(Cl)cc1)C=C(c1ccc(Cl)cc1)N2 (centres unmarked)	-3.37%
CCOc1ccccc1N(CC(=O)NC1CC2CCC1C2)S(C)(=O)=O (centres unmarked)	14.8%
COc1cc(-c2nc3s/c(=C\c4ccc(C)o4)c(=O)n3n2)cc(OC)c1OC	-2.98%
CN1CCN(C2C3CC4CC(C3)CC2C4)CC1 (centres unmarked)	0.217% and -1.56%
Cc1ccc(C2CC(c3ccccc3F)n3nnnc3N2)cc1C (centres unmarked)	1.86%
O=C(CN1CCCCC1)Nc1ccc(OC(F)(F)Cl)cc1	-2.15%
COc1ccc(OC)c(C2SCCN2S(=O)(=O)c2ccc3ccccc3c2)c1 (centres unmarked)	-3.4%
COc1ccc(-c2nc(SC(C)C)cc(N3CCN(C)CC3)n2)cc1	3.24%
COC(=O)c1sc(-c2ccccc2)cc1NC(=O)c1ccc(C)cc1	-0.447%
O=C(c1cccnc1)N1CCN(Cc2ccccc2Cl)CC1	-3.03%
C=CCSC(=O)NC(=O)Cc1ccccc1	-4.3%

SMILES	% Inhibition @ 10 uM
O=C(O)C1CCC(N2C(=O)C3CCCCC3C2=O)CC1 (centres unmarked)	5.58%
CCn1c(C(=O)N2CCC(C(=O)N3CCN(C(=O)c4ccco4)CC3)CC2)cc2sccc21	-0.0745%
COC(=O)c1c(C)oc2ccc(O)c(CN(C)C3CCN(C)CC3)c12	-2.99%
CCCCN(C)CCNC(=O)CCn1nc(-c2ccc(C)cc2)ccc1=O	-1.79%
CCCc1ccc(-c2ccc(C#N)c(O)n2)cc1	3.32%
CCN(Cc1nc(-c2cccc(C)c2)no1)S(=O)(=O)c1c(C)cc(C)cc1C	0.758%
COc1ccc(-c2nc(S(=O)(=O)c3ccccc3)c(N3CCOCC3)o2)cc1OC	-1.96%
N#Cc1cc2c(nc1SCc1cccnc1)CCCC2	-0.68%
C=CCOc1ccc(C(=O)C2=C(O)C(=O)N(CCN(C)C)C2c2ccc(C(C)C)cc2)c(C)c1 (centres unmarked)	6.27%
CCCCNS(=O)(=O)c1ccccc1[N+](=O)[O-]	-2.44%
CCC(Oc1ccccc1)C(=O)Nc1ccc(Cl)cc1 (centres unmarked)	-3.32%
COc1ccc2[nH]c(C)c(CCNCc3ccc(F)cc3)c2c1	-10.2%
COc1ccc(OC)c(C2=NOC(C(=O)NC(C)(C)C)C2)c1 (centres unmarked)	4.41%
Cc1cc(=O)n2nc(N3CCC(C(=O)N4CCN(Cc5ccccc5)CC4)CC3)sc2n1	-0.281%
OC1(C#CCN2CCOCC2)CCCCC1	3.16%
O=c1c(-c2ccc(F)cc2)coc2c(O)c(O)ccc12	-14.6%
CS(=O)(=O)c1sc2nc(-c3cccs3)cc(-c3ccccc3)c2c1N	64.2%
O=C(NCc1ccccc1Cl)C1CCN(S(=O)(=O)N2CCOCC2)CC1	-1.34%
CCC(C)NC(=O)c1cnn2c(C)c(Cc3c(C)cc(C)cc3C)c(C)nc12 (centres unmarked)	1.16%
S=C1NCN(Cc2ccccc2)CN1CC1CCCO1 (centres unmarked)	-7.56%
N#CC1=C(N)OC2=C(C(=O)CC(c3ccccc3)C2)C1c1ccc([N+](=O)[O-])cc1 (centres unmarked)	-1.93%
O=C(COc1ccccc1)Nc1cccnc1Cl	2.86%
CSc1nc(C)c(C(=O)Nc2ccccc2)c(-c2ccco2)c1C#N	5.48%
CCN(c1ccccc1)S(=O)(=O)c1ccc(NC(C)=O)cc1	4.57%
CCCCC(=O)N[C@@H](CC1CCCCC1)C(=O)NCC#N	-3.49%
CSC1=NSC2=NC(=O)/C(=C\c3cccn3-c3ccccc3)C(=N)N12	3.53%

SMILES	% Inhibition @ 10 uM
Cn1cc(CCC(=O)NCCCN2CCC(Cc3ccccc3)CC2)c2ccccc21	3.28%
CCN(CC)CCNC(=O)C(NC(=O)c1ccc(C23CC4CC(CC(C4)C2)C3)cc1)C(C)C (centres unmarked)	-2.49%
CCc1ccc(OCC(=O)O/N=C(\N)c2ccncc2)cc1	0.147%
Cc1ccnc(NC(=O)CCn2cnc3onc(-c4ccc(F)cc4)c3c2=O)c1	3.91%
O=C1c2[nH]nc(-c3ccccc3O)c2C(c2cccc(O)c2)N1Cc1ccco1 (centres unmarked)	3.62%
CC(C)C[C@H](NC(=O)c1ccc(-c2ccc(Cl)cc2)cc1)C(=O)NCC#N	-3.24%
O=C1CC(NCc2ccc(F)cc2)C(=O)N1c1ccc(Br)cc1 (centres unmarked)	4.06%
CC1=C(C(=O)Nc2cccc(C)n2)C(c2ccc(Cl)cc2)C2=C(O)CCCC2=N1 (centres unmarked)	2.56%
COc1cccc(OC)c1C(=O)Nc1ccc(C)c(Cl)c1	-2.6%
CCCc1nn(-c2ccc(F)cc2)c(O)c1/C=N/CCCn1ccnc1	-1.24%
Cc1ccccc1NC(=O)c1cccc(C(=O)Nc2ccccc2C)n1	-0.872%
COc1cc(CN2CCN(Cc3ccc(C)cc3)CC2)cc(OC)c1	-1.49%
Oc1nc(SCc2ccccc2)nc(O)c1Cc1ccccc1	-2.12%
COc1ccc(S(=O)(=O)N2CCCC(C)C2)cc1OC (centres unmarked)	5.85%
CCOCCCNS(=O)(=O)c1ccc(NC(C)=O)cc1	-9.26%
CN(Cc1ccco1)C(=O)c1noc2c1CSc1ccccc1-2	1.68%
CN(C(=O)c1ccc(Br)cc1)c1ccccc1	-6.44%
OC1(c2ccc(Br)cc2)CCN(Cc2c(F)cccc2Cl)CC1	-3.27%
O=C1c2cccnc2C(=O)N1Cc1ccc(S(=O)(=O)NCCc2ccccc2)cc1	-2.65%
CCCNC(=O)c1c(N)sc2c1CCCCC2	20.4%
C=CCN1C(=O)N/C(=C/c2cc(Cl)c(OCc3ccccc3)c(OC)c2)C1=O	1.4%
COC(=O)c1ccc(Oc2nc(N(C)C)nc(N(C)C)n2)cc1	2.94%
COc1ccc(CCNC(=O)CNC(=S)N(Cc2ccccc2)Cc2cccs2)cc1OC	-3.94%
